This is an account of results in patent US9694024B2 (priority 2010, dated 2017).

One assay relates to NRTI-resistant HIV. Description: microbe, parasite or virus in culture. The class given is cell-based.
The next assay concerns NRTI resistant HIV. As to the kind of experiment: microbe, parasite or virus in culture. It counts as cell-based.

pEC50, pIC50: −log10 of the molar value. Where two headings read alike, the source gives them in different places.

As to `CCCCCCCCCCCCCCCCOCCCOP(=O)(O)CO[C@H](C)Cn1cnc2c(N)ncnc21` [CMX157, 3-(hexadecyloxy)propyl hydrogen ((R)-1-(6-amino-9H-purin 9-yl)propan-2-yloxy)methylphosphonate], the pIC50 in the assay with NRTI-resistant HIV (Human immunodeficiency virus 1, PBMC, HIV RT genotype 41L/67N/70R/215F/219E, PBMCs) was 8.42; with NRTI-resistant HIV (Human immunodeficiency virus 1, PBMC, HIV RT genotype 41L/67N/210W/215Y, PBMCs), 7.72; in the assay with NRTI-resistant HIV (Human immunodeficiency virus 1, PBMC, HIV RT genotype 41L/67N/210W/215Y/184V, PBMCs), 8.51; in the assay on NRTI-resistant HIV (Human immunodeficiency virus 1, PBMC, HIV RT genotype 41L/210W/215Y/184V/69SSS, PBMCs), 8.05; with NRTI-resistant HIV (Human immunodeficiency virus 1, PBMC, HIV RT genotype 65R/184V, PBMCs) it was 8.74; with NRTI-resistant HIV (Human immunodeficiency virus 1, PBMC, HIV RT genotype 75I/77L/116Y/151M/184V, PBMCs), 8.30. For the same compound, the pIC50 is 7.72 to 8.70 with NRTI-resistant HIV (Human immunodeficiency virus 1, PBMC, read-out: IC50s against NRTI resistant HIV in PBMCs); 8.66 in the assay on NRTI resistant HIV (Human immunodeficiency virus 1, read-out: IC50 for 41L/210W/215Y, average, with 184V); 8.20 in the assay on NRTI resistant HIV (Human immunodeficiency virus 1, read-out: IC50 for 41L/210W/215Y, average, without 184V); 7.24 to 9.00 with NRTI resistant HIV (Human immunodeficiency virus 1, read-out: IC50s against NRTI resistant HIV in a PHENOSENSE assay). For the same compound, in the assay with NRTI-resistant HIV (NRTI resistant HIV in PBMCs), the “fold more potent than tenofovir” value is 500-1000 fold. The “fold more potent than tenofovir (TFV) against HIV” value in the assay on NRTI resistant HIV is on record as “greater than 300 fold”. In addition, the pEC50 is 7.24 with NRTI resistant HIV (Human immunodeficiency virus 1, read-out: EC50, PHENOSENSE assay, 62V/69SVG/75I/215I); 9.18 in the assay on NRTI resistant HIV (Human immunodeficiency virus 1, read-out: EC50, PHENOSENSE assay, 74V/184V); 8.20 in the assay on NRTI resistant HIV (Human immunodeficiency virus 1, read-out: EC50 for M41L/L210W/T215Y mutants, average).
As to `C[C@H](Cn1cnc2c(N)ncnc21)OCP(=O)(O)O` [Tenofovir, (R)-9-(2-phosphonylmethoxypropyl)adenine, reference compound], the pIC50 in the assay on NRTI-resistant HIV (HIV RT genotype 41L/67N/70R/215F/219E, PBMCs, read-out: IC50) was 5.19; with NRTI-resistant HIV (HIV RT genotype 41L/67N/210W/215Y, PBMCs, read-out: IC50) it was less than 5.07; with NRTI-resistant HIV (HIV RT genotype 41L/67N/210W/215Y/184V, PBMCs, read-out: IC50), 5.27; in the assay with NRTI-resistant HIV (HIV RT genotype 41L/210W/215Y/184V/69SSS, PBMCs, read-out: IC50), less than 5.19; with NRTI-resistant HIV (HIV RT genotype 65R/184V, PBMCs, read-out: IC50) it was 5.98; in the assay on NRTI-resistant HIV (HIV RT genotype 75I/77L/116Y/151M/184V, PBMCs, read-out: IC50) it was less than 5.19. The pIC50 in the assay on NRTI resistant HIV (with 184V, read-out: IC50 for 41L/210W/215Y, average) was 6.11; with NRTI resistant HIV (without 184V, read-out: IC50 for 41L/210W/215Y, average), 5.65. Also, the pEC50 in the assay on NRTI resistant HIV (62V/69SVG/75I/215I, read-out: EC50, PHENOSENSE assay) was 4.77; in the assay on NRTI resistant HIV (74V/184V, read-out: EC50, PHENOSENSE assay), 6.64; in the assay with NRTI resistant HIV (read-out: EC50 for M41L/L210W/T215Y mutants, average), 5.65.
